Assay results: US20250145701A1 (REMEGEN SHANGHAI, published 2025)

Key:
[1] = target: VEGF (species and construct not stated); assay: cell-based or functional assay
[2] = target: T1, human PD-1 (ACRO, His tag) (human, UniProt Q15116 part only); assay: ELISA, human PD-1-His coated at 1 ug/mL, anti-human IgG Fc detection, OD450
T1 construct: Bought protein; not shown: His tag
Description: The binding of the antibody to human PD-1 was detected by ELISA. 1 μg/mL human PD-1 (ACRO, His tag) was coated on an ELISA plate overnight and blocked. Subsequently, the plate was added with gradient dilutions of the bispecific antibody and the control antibody, incubated and washed. Then, the plate was added with HRP-labeled anti-human IgG Fc secondary antibody, incubated and washed. After TMB solution was added for color development, the OD450 absorbance value was read on a microplate reader (see Table 12). […] Subsequently, the plate was added with gradient dilutions of the sample to be tested and the control antibody, incubated and washed. Then, the plated was added with HRP-labeled anti-human IgG Fc secondary antibody, incubated and washed. After TMB solution was added for color development, the OD450 absorbance value was read on a microplate reader (see Table 13). […] (The control substances were all obtained by in-house expression and purification)

[3] = target: T2, human VEGF (ACRO, His tag) (human, UniProt P15692-4 27-191, limits assumed); assay: ELISA, human VEGF-His coated at 50 ng/ml, anti-human IgG Fc detection, OD450
T2 construct: Bought protein; not shown: His tag
T2 sequence (looked up): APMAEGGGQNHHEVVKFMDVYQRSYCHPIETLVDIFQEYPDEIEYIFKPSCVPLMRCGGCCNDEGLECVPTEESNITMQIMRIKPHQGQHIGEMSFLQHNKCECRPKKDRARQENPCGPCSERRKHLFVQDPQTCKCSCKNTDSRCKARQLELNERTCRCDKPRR

[4] = target: T3, monkey PD-1 (ACRO, His tag) (monkey, UniProt B0LAJ3 25-170); assay: ELISA, monkey PD-1-His coated at 1 ug/mL, anti-human IgG Fc detection, OD450
T3 construct: Bought protein
T3 sequence (B0LAJ3 entry or part of it limits assumed, form in doubt): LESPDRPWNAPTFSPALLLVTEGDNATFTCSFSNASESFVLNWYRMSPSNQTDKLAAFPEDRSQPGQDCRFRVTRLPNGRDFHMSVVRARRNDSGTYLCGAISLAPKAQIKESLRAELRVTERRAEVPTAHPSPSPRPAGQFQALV
Description: The binding of candidate molecules and competitor to antigens of different species was detected by ELISA. […] The binding of antibodies to monkey PD-1 was detected by ELISA. An ELISA plate was coated with 1 μg/mL monkey PD-1 (ACRO, His tag) overnight and blocked. Subsequently, the plate was added with gradient dilutions of the sample to be tested and the control antibody, incubated and washed. Then, the plate was added with HRP-labeled anti-human IgG Fc secondary antibody, incubated and washed. After TMB solution was added for color development, the OD450 absorbance value was read on a microplate reader (see Table 15).

[5] = target: T1, human PD-1 (ACRO, His tag); assay: bridging ELISA: human PD-1-His coated at 1 ug/mL, antibody, then biotinylated human VEGF at 50 ng/ml and streptavidin-HRP, OD450
T1 sequence (Q15116 25-167 limits assumed): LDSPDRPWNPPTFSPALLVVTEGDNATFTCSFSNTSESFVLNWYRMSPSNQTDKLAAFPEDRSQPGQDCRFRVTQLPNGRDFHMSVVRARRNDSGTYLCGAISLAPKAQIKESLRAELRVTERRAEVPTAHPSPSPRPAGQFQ
Description: The order of the binding to VEGF and PD-1 was changed for dual ELISA detection. A 96-well ELISA plate was coated with 1 μg/mL human PD-1 (ACRO, His tag) overnight, washed and blocked for 1 hour. […] TMB solution was added for color development, and the OD450 nm absorbance value was read on a microplate reader.

maximum inhibition rate of HUVEC proliferation [1]: ~40%
TOP OD [2]: 2.19 OD
TOP OD [3]: 2.68 OD
TOP OD [4]: 2.56 OD
TOP OD [5]: 3.42 OD
B1: bispecific antibody AK112 analog targeting PD-1 and VEGF (bispecific antibody, human IgG1, kappa)
heavy: EVQLVESGGGLVQPGGSLRLSCAASGYTFTNYGMNWVRQAPGKGLEWVGWINTYTGEPTYAADFKRRFTFSLDTSKSTAYLQMNSLRAEDTAVYYCAKYPHYYGSSHWYFDVWGQGTLVTVSSASTKGPSVFPLAPSSKSTSGGTAALGCLVKDYFPEPVTVSWNSGALTSGVHTFPAVLQSSGLYSLSSVVTVPSSSLGTQTYICNVNHKPSNTKVDKKV[human IgG1 Fc with changes left out]GGGGSGGGGSGGGGSGGGGSEVQLVESGGGLVQPGGSLRLSCAASGFAFSSYDMSWVRQAPGKGLDWVATISGGGRYTYYPDSVKGRFTISRDNSKNNLYLQMNSLRAEDTALYYCANRYGEAWFAYWGQGTLVTVSSGGGGSGGGGSGGGGSGGGGSDIQMTQSPSSMSASVGDRVTFTCRASQDINTYLSWFQQKPGKSPKTLIYRANRLVSGVPSRFSGSGSGQDYTLTISSLQPEDMATYYCLQYDEFPLTFGAGTKLELK
light: DIQMTQSPSSLSASVGDRVTITCSASQDISNYLNWYQQKPGKAPKVLIYFTSSLHSGVPSRFSGSGSGTDFTLTISSLQPEDFATYYCQQYSTVPWTFGQGTKVEIKRTVAAPSVFIFPPSDEQLKSGTASVVCLLNNFYPREAKVQWKVDNALQSGNSQESVTEQDSKDSTYSLSSTLTLSKADYEKHKVYACEVTHQGLSSPVTKSFNRGEC
notes: Prepared in-house as a control; An anti-PD-1 scFv is fused to the heavy chain C-terminus
